Test results: US20100184672A1 (published 2010)

Biological target: T1, glycocalicin (the proteolytic fragment of GPIb) (human, UniProt P07359 in part)
T1 construct: domain: glycocalicin (the proteolytic fragment of GPIb); Purified from human platelets; coated on the SPR sensor
Test: SPR, ligand perfused over glycocalicin-coated sensor, Langmuir one-to-one fit
Source text: The sensorgrams at different concentrations were obtained and normalized by subtracting background signals from the glycocalicin surface.

B1: A1 domain of von Willebrand factor (ligand)
chain: not shown
notes: domain: A1 domain; Printed once as 'AI domain of VWF' (a misprint of A1); also called VWF A1; AI domain of VWF
  Kd: 36 nM
